Experimental data reported in PubChem BioAssay AID1508649 (National Center for Advancing Translational Sciences (NCATS), 2021).
The campaign covered roughly 43,000 compounds. About 830 (1.9%) were called active. Inconclusive results, whose numbers are uncertain, are shown with a selection of clear calls. The calls were made as follows: active = clear falling dose curves in both reporters; inconclusive = both reporters move, but less clearly or upward; inactive = either reporter flat; the % is the NLuc reporter signal. No potency is given beside an inconclusive call; the fits are too rough.

assay: Cell-based coincidence reporter assay to measure PMP22 gene transcription in S16 Pmp22-F2sN cells - Primary screen; details: S16 Pmp22-F2sN Schwann cells (luciferase reporters placed in the Pmp22 gene), FLuc/NLuc coincidence luminescence, 24 h; measured here: NLuc reporter readout, at 57.5 µM (top of the series)
Outline: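 Rat S16 Pmp22-F2sN cells, 500-1,000/well in phenol red-free DMEM + 10% FBS, compound-treated 24 h (37C, 5% CO2). Luminescence: FLuc read, Stop&Glo added, NLuc read.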
Potency is read from the fitted curve at half-maximal effect; tags tell the direction and shape of the fitted curve.

| Structure (SMILES) | Potency |
| --- | --- |
| CCCCNC(=O)c1[nH]c2ccccc2c1Sc1ccc(C)cc1 | inconclusive [phenotype inactive, single point] |
| Cc1oc(-c2cccc(Cl)c2)nc1CN1CCC(C(=O)NCCCN2CCN(c3cccc(Cl)c3)CC2)CC1 | active: 11.9 µM |
| COc1cc(OC)c(NC(=O)CCn2cnc3onc(-c4ccc(F)cc4)c3c2=O)cc1Cl | inconclusive [phenotype inactive, single point] |
| CC(=O)c1cccc(NC(=O)c2nc(-c3ccc(C)cc3)n3c2CCCCC3)c1 | inconclusive [phenotype inactive, single point] |
| Cc1ccc(S(=O)(=O)Nc2cccc(-c3ccc(N4CCCCC4)nn3)c2)s1 | inactive |
| CCc1ccc2nc(N3CCC(C(=O)O)CC3)sc2c1 | inactive |
| COc1ccc(Br)cc1C1CC(=O)Nc2c1c(C)nn2-c1nc(C)cc(C)n1 (configuration not stated) | inconclusive [phenotype inactive, partial curve, poor fit] |
| CCc1ccccc1Nc1nn2c(=O)c3ccc(C(=O)Nc4ccc(OC)cc4)cc3nc2s1 | inconclusive [phenotype inactive, single point] |
| CCN1CCC(N(Cc2ccc(F)cc2)C(=O)Nc2cccc(C(F)(F)F)c2)CC1 | inconclusive [phenotype inactive, single point] |
| Cc1ccc(NC(=O)Cn2c(=O)oc3cc(S(=O)(=O)N4CCC(C)CC4)ccc32)cc1Cl | inconclusive [phenotype inactive, single point] |
| CCC(=O)Nc1ccccc1-c1nc2ccccc2n(C(C)C(=O)Nc2ccc(OC)cc2)c1=O (configuration not stated) | inactive |
| CC(=O)c1ccc(NC(=O)c2nc(-c3ccccc3)n(-c3ccccc3Cl)n2)cc1 | inconclusive [phenotype inactive, single point] |
| Cc1cccc(N2CCN(C(=O)Cn3ncc4c3-c3ccccc3OC4)CC2)c1C | inconclusive [phenotype inactive, single point] |
| CCc1nn(CCCC(=O)N2CCN(c3ccc(OC)cc3)CC2)c(=O)c2cc3occc3n12 | inconclusive [phenotype inactive, partial curve] |
| Cc1cccc(C(=O)N(Cc2ccco2)Cc2ccccc2F)c1 | inactive |
| COc1cccc(Cn2c(=O)cc(C)c3c(C)nn(-c4ccc(C)cc4)c32)c1 | inconclusive [phenotype inactive, single point] |
| CCOc1ccc(NC(=O)CN2CCN(C3CCCCC3)C(=O)C2=O)cc1 | inconclusive [phenotype inactive, partial curve, poor fit] |
